{"source": "the supplement of paper PMC8728848", "binders": {"B1": {"name": "DrGal9 (Danio rerio) (protein)", "chain": "MAFYQQPPYYNPRIPFSGPIQGGLQDGKSIIISGRVLPGANRFHVNLQCGSHSEANVALHFNPRYEDTDYVVNNSYLNRTWGSEERKYESPFAQGQTFTLQILVAQDKYKISTNGRHFMDYKHRIPFTQVDTVAVEGMVEVNSVAFQNPAGFIPPQAGYAPQYAVPPGCGFPAFPSAPNYTIPHKTVMNGGLHPGKNIVINGVVNPNAKSIIFNLCYRSGIAFHYNPRFDENVVVRNTNQMEKWGAEERFGGLPFHKGQPFQVTISCNPQHYNVFVNGKQEHTYKHRYTKLNDIDILEICGDLQLTSVQA"}}, "experiment_in_all_cases": "glycan array binding signal (z-score within array); higher = stronger binding", "conditions_in_all_cases": "glycan notation: IUPAC condensed, linker removed", "key": {"Fuc(a1-2)Gal": {"target": "Fuc(a1-2)Gal", "outline": "(§1)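 Glycan array binding is given as a within-array Z-score, which can be read as non-binding when negative. The arrays, 3228 of them, came from the Consortium for Functional Glycomics database and were retained only where the protein sequence was available. Z-scores were averaged across arrays of the same protein sequence at different concentrations or buffers and across linkers.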"}, "Fuc(a1-2)Gal(b1-3)GalNAc": {"target": "Fuc(a1-2)Gal(b1-3)GalNAc", "outline": "as §1"}, "[1]": {"target": "Fuc(a1-2)Gal(b1-3)GalNAc(a1-3)[Fuc(a1-2)]Gal(b1-4)Glc", "outline": "as §1"}, "[2]": {"target": "Fuc(a1-2)Gal(b1-3)GalNAc(a1-3)[Fuc(a1-2)]Gal(b1-4)GlcNAc", "outline": "as §1"}, "[3]": {"target": "Fuc(a1-2)Gal(b1-3)GalNAc(b1-3)Gal", "outline": "as §1"}, "[4]": {"target": "Fuc(a1-2)Gal(b1-3)GalNAc(b1-3)Gal(a1-4)Gal(b1-4)Glc", "outline": "as §1"}, "[5]": {"target": "Fuc(a1-2)Gal(b1-3)GalNAc(b1-4)[Neu5Ac(a2-3)]Gal(b1-4)Glc", "outline": "as §1"}, "Fuc(a1-2)Gal(b1-3)GlcNAc": {"target": "Fuc(a1-2)Gal(b1-3)GlcNAc", "outline": "as §1"}, "[6]": {"target": "Fuc(a1-2)Gal(b1-3)GlcNAc(b1-2)Man(a1-3)[Fuc(a1-2)Gal(b1-3)GlcNAc(b1-2)Man(a1-6)]Man(b1-4)GlcNAc(b1-4)GlcNAc", "outline": "as §1"}, "[7]": {"target": "Fuc(a1-2)Gal(b1-3)GlcNAc(b1-2)Man(a1-3)[Fuc(a1-2)Gal(b1-3)GlcNAc(b1-2)Man(a1-6)]Man(b1-4)GlcNAc(b1-4)[Fuc(a1-6)]GlcNAc", "outline": "as §1"}, "[8]": {"target": "Fuc(a1-2)Gal(b1-3)GlcNAc(b1-3)Gal(b1-4)Glc", "outline": "as §1"}, "[9]": {"target": "Fuc(a1-2)Gal(b1-3)GlcNAc(b1-3)GalNAc", "outline": "as §1"}, "[10]": {"target": "Fuc(a1-2)Gal(b1-3)GlcNAc(b1-3)[Fuc(a1-2)Gal(b1-3)GlcNAc(b1-6)]GalNAc", "outline": "as §1"}, "[11]": {"target": "Fuc(a1-2)Gal(b1-3)GlcNAc(b1-3)[Gal(b1-4)GlcNAc(b1-6)]Gal(b1-4)Glc", "outline": "as §1"}, "[12]": {"target": "Fuc(a1-2)Gal(b1-3)GlcNAc(b1-3)[Neu5Ac(a2-6)Gal(b1-4)GlcNAc(b1-6)]Gal(b1-4)Glc", "outline": "as §1"}, "[13]": {"target": "Fuc(a1-2)Gal(b1-3)GlcNAc6S", "outline": "as §1"}, "[14]": {"target": "Fuc(a1-2)Gal(b1-3)[Fuc(a1-4)]GlcNAc", "outline": "as §1"}, "[15]": {"target": "Fuc(a1-2)Gal(b1-3)[Fuc(a1-4)]GlcNAc(b1-2)Man(a1-3)[Fuc(a1-2)Gal(b1-3)[Fuc(a1-4)]GlcNAc(b1-2)Man(a1-3)]Man(b1-4)GlcNAc(b1-4)GlcNAc", "outline": "as §1"}, "[16]": {"target": "Fuc(a1-2)Gal(b1-3)[Fuc(a1-4)]GlcNAc(b1-2)Man(a1-3)[Fuc(a1-2)Gal(b1-3)[Fuc(a1-4)]GlcNAc(b1-2)Man(a1-6)]Man(b1-4)GlcNAc(b1-4)[Fuc(a1-6)]GlcNAc(b1-4)[Fuc(a1-6)]GlcNAc", "outline": "as §1"}, "[17]": {"target": "Fuc(a1-2)Gal(b1-3)[Fuc(a1-4)]GlcNAc(b1-3)[Fuc(a1-3)[Gal(b1-4)]GlcNAc(b1-6)]Gal(b1-4)Glc", "outline": "as §1"}, "[18]": {"target": "Fuc(a1-2)Gal(b1-3)[Fuc(a1-4)]GlcNAc(b1-3)[Gal(b1-4)GlcNAc(b1-6)]Gal(b1-4)Glc", "outline": "as §1"}, "[19]": {"target": "Fuc(a1-2)Gal(b1-4)Fuc(a1-3)]GlcNAc(b1-2)Man(a1-3)[Fuc(a1-2)Gal(b1-4)[Fuc(a1-3)]GlcNAc(b1-2)Man(a1-6)]Man(b1-4)GlcNAc(b1-4)GlcNAc", "outline": "as §1"}, "Fuc(a1-2)Gal(b1-4)Glc": {"target": "Fuc(a1-2)Gal(b1-4)Glc", "outline": "as §1"}, "Fuc(a1-2)Gal(b1-4)Glc6S": {"target": "Fuc(a1-2)Gal(b1-4)Glc6S", "outline": "as §1"}, "Fuc(a1-2)Gal(b1-4)GlcNAc": {"target": "Fuc(a1-2)Gal(b1-4)GlcNAc", "outline": "as §1"}, "[20]": {"target": "Fuc(a1-2)Gal(b1-4)GlcNAc(b1-2)Man", "outline": "as §1"}, "[21]": {"target": "Fuc(a1-2)Gal(b1-4)GlcNAc(b1-2)Man(a1-3)[Fuc(a1-2)Gal(b1-4)GlcNAc(b1-2)Man(a1-6)]Man(b1-4)GlcNAc(b1-4)GlcNAc", "outline": "as §1"}, "[22]": {"target": "Fuc(a1-2)Gal(b1-4)GlcNAc(b1-2)Man(a1-3)[Fuc(a1-2)Gal(b1-4)GlcNAc(b1-2)Man(a1-6)]Man(b1-4)GlcNAc(b1-4)[Fuc(a1-6)]GlcNAc", "outline": "as §1"}, "[23]": {"target": "Fuc(a1-2)Gal(b1-4)GlcNAc(b1-2)[Fuc(a1-2)Gal(b1-4)GlcNAc(b1-4)]Man(a1-3)[Fuc(a1-2)Gal(b1-4)GlcNAc(b1-2)Man(a1-6)]Man(b1-4)GlcNAc(b1-4)GlcNAc", "outline": "as §1"}, "[24]": {"target": "Fuc(a1-2)Gal(b1-4)GlcNAc(b1-3)Gal(b1-4)GlcNAc", "outline": "as §1"}, "[25]": {"target": "Fuc(a1-2)Gal(b1-4)GlcNAc(b1-3)Gal(b1-4)GlcNAc(b1-2)Man(a1-3)[Fuc(a1-2)Gal(b1-4)GlcNAc(b1-3)Gal(b1-4)GlcNAc(b1-2)Man(a1-6)]Man(b1-4)GlcNAc(b1-4)GlcNAc", "outline": "as §1"}, "[26]": {"target": "Fuc(a1-2)Gal(b1-4)GlcNAc(b1-3)Gal(b1-4)GlcNAc(b1-3)Gal(b1-4)GlcNAc", "outline": "as §1"}, "[27]": {"target": "Fuc(a1-2)Gal(b1-4)GlcNAc(b1-3)GalNAc", "outline": "as §1"}, "[28]": {"target": "Fuc(a1-2)Gal(b1-4)GlcNAc(b1-3)[Fuc(a1-2)Gal(b1-4)GlcNAc(b1-6)]GalNAc", "outline": "as §1"}, "[29]": {"target": "Fuc(a1-2)Gal(b1-4)GlcNAc(b1-3)[Fuc(a1-3)[Gal(b1-4)]GlcNAc(b1-6)]Gal(b1-4)Glc", "outline": "as §1"}, "[30]": {"target": "Fuc(a1-2)Gal(b1-4)GlcNAc(b1-6)GalNAc", "outline": "as §1"}, "[31]": {"target": "Fuc(a1-2)Gal(b1-4)GlcNAc6S", "outline": "as §1"}}, "note": "This is one part of the list."}
{"binder": "B1", "values": [{"measurement": "glycan array binding signal (z-score)", "setting": "Fuc(a1-2)Gal", "result": -0.362}, {"measurement": "glycan array binding signal (z-score)", "setting": "Fuc(a1-2)Gal(b1-3)GalNAc", "result": -0.393}, {"measurement": "glycan array binding signal (z-score)", "setting": "[1]", "result": -0.413}, {"measurement": "glycan array binding signal (z-score)", "setting": "[2]", "result": -0.403}, {"measurement": "glycan array binding signal (z-score)", "setting": "[3]", "result": -0.385}, {"measurement": "glycan array binding signal (z-score)", "setting": "[4]", "result": -0.367}, {"measurement": "glycan array binding signal (z-score)", "setting": "[5]", "result": -0.359}, {"measurement": "glycan array binding signal (z-score)", "setting": "Fuc(a1-2)Gal(b1-3)GlcNAc", "result": 0.362}, {"measurement": "glycan array binding signal (z-score)", "setting": "[6]", "result": 0.6}, {"measurement": "glycan array binding signal (z-score)", "setting": "[7]", "result": -0.214}, {"measurement": "glycan array binding signal (z-score)", "setting": "[8]", "result": 1.02}, {"measurement": "glycan array binding signal (z-score)", "setting": "[9]", "result": -0.086}, {"measurement": "glycan array binding signal (z-score)", "setting": "[10]", "result": 0.579}, {"measurement": "glycan array binding signal (z-score)", "setting": "[11]", "result": 0.889}, {"measurement": "glycan array binding signal (z-score)", "setting": "[12]", "result": -0.123}, {"measurement": "glycan array binding signal (z-score)", "setting": "[13]", "result": 0.19}, {"measurement": "glycan array binding signal (z-score)", "setting": "[14]", "result": -0.365}, {"measurement": "glycan array binding signal (z-score)", "setting": "[15]", "result": -0.343}, {"measurement": "glycan array binding signal (z-score)", "setting": "[16]", "result": -0.388}, {"measurement": "glycan array binding signal (z-score)", "setting": "[17]", "result": -0.349}, {"measurement": "glycan array binding signal (z-score)", "setting": "[18]", "result": -0.351}, {"measurement": "glycan array binding signal (z-score)", "setting": "[19]", "result": -0.318}, {"measurement": "glycan array binding signal (z-score)", "setting": "Fuc(a1-2)Gal(b1-4)Glc", "result": -0.377}, {"measurement": "glycan array binding signal (z-score)", "setting": "Fuc(a1-2)Gal(b1-4)Glc6S", "result": 0.366}, {"measurement": "glycan array binding signal (z-score)", "setting": "Fuc(a1-2)Gal(b1-4)GlcNAc", "result": -0.239}, {"measurement": "glycan array binding signal (z-score)", "setting": "[20]", "result": -0.38}, {"measurement": "glycan array binding signal (z-score)", "setting": "[21]", "result": 0.772}, {"measurement": "glycan array binding signal (z-score)", "setting": "[22]", "result": -0.198}, {"measurement": "glycan array binding signal (z-score)", "setting": "[23]", "result": 0.03}, {"measurement": "glycan array binding signal (z-score)", "setting": "[24]", "result": 0.484}, {"measurement": "glycan array binding signal (z-score)", "setting": "[25]", "result": 3.83}, {"measurement": "glycan array binding signal (z-score)", "setting": "[26]", "result": 1.21}, {"measurement": "glycan array binding signal (z-score)", "setting": "[27]", "result": -0.32}, {"measurement": "glycan array binding signal (z-score)", "setting": "[28]", "result": -0.039}, {"measurement": "glycan array binding signal (z-score)", "setting": "[29]", "result": 0.271}, {"measurement": "glycan array binding signal (z-score)", "setting": "[30]", "result": -0.188}, {"measurement": "glycan array binding signal (z-score)", "setting": "[31]", "result": -0.243}]}
